# This is one part of the list.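 How the source made its calls: active = permutation test q below 0.05 after Benjamini-Hochberg correction; inactive = q of 0.05 or more.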
# What was measured:
# A549 = assay: mean average precision of replicate retrieval against DMSO controls (Cell Painting phenotypic activity) (fraction (0-1)); higher = stronger, more reproducible morphological phenotype distinct from DMSO; extreme values may be limits of the assay; settings: 5 µM
# U2OS = assay: as above; settings: 5 µM
# 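Further: cosine similarity of well-level aggregated Cell Painting profiles ranks each compound's replicate wells against DMSO wells, four replicate plates, significance from 100,000 rank shuffles.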
Structure (SMILES),mean average precision (A549; 24 h),mean average precision (A549; 48 h),mean average precision (U2OS; 24 h),mean average precision (U2OS; 48 h)
CC[C@@H]1C(=O)N(C)c2cnc(Nc3ccc(C(=O)NC4CCN(C)CC4)cc3OC)nc2N1C1CCCC1,active: 1,active: 1,active: 1,active: 1
O=C(O)c1ccccc1O,active: 0.379,active: 0.531,active: 0.844,inactive: 0.176
N=C(N)N,active: 0.337,active: 0.855,inactive: 0.115,inactive: 0.116
CC1(C)C(=O)N=C2c3ccccc3C(=O)C(=O)C21 (stereo not drawn),active: 0.752,active: 0.863,active: 1,active: 1
NC(=O)Nc1cc(-c2cccc(F)c2)sc1C(=O)N[C@H]1CCCNC1,active: 1,active: 1,active: 1,active: 1
O=C1OC(c2ccc(O)cc2)(c2ccc(O)cc2)c2ccccc21,inactive: 0.232,inactive: 0.281,active: 0.917,inactive: 0.166
O=C(NCc1cccc(O)c1)Nc1nc(-c2ccncc2)cs1,active: 1,active: 1,active: 1,active: 1
CCCCCC[C@@H](CCC)C(=O)O,active: 0.332,active: 0.701,inactive: 0.147,inactive: 0.181
O=C1C(SCCO)=C(SCCO)C(=O)c2ccccc21,active: 0.897,active: 1,active: 1,active: 1
CCCCCCCC/C=C\CCCCCCCC(=O)N[C@@H](CO)Cc1ccc(O)cc1,active: 0.837,active: 0.608,active: 0.689,active: 0.668
Cc1cccc(Oc2nc3c(C)cccn3c(=O)c2/C=C(\C#N)c2nc3ccccc3s2)c1,active: 0.903,active: 1,active: 0.37,active: 0.822
O=C1NC(=O)C2(CCOc3ccc(F)cc32)N1 (stereo not drawn),active: 0.36,active: 0.55,inactive: 0.117,inactive: 0.0837
COc1cc2ncnc(Sc3nnc(C)s3)c2cc1OC,active: 1,active: 1,active: 0.868,active: 1
Cn1ncc(Cl)c1-c1cc(C(=O)N[C@H](CN)Cc2cccc(F)c2)sc1Cl,active: 1,active: 1,active: 1,active: 1
Nc1nc(F)nc2c1ncn2[C@@H]1O[C@H](COP(=O)(O)O)[C@@H](O)[C@@H]1O,active: 1,active: 1,active: 1,active: 1
CCCOc1ccccc1-c1nc2n[nH]nc2c(=O)[nH]1,inactive: 0.232,active: 0.829,active: 0.551,active: 0.353
Cn1c(=O)c2c(ncn2CC(O)CO)n(C)c1=O (stereo not drawn),active: 0.324,inactive: 0.279,inactive: 0.14,inactive: 0.127
CCC(CC)n1ccc2c(C(=O)NCc3c(C)cc(C)[nH]c3=O)cc(C#N)cc21,active: 0.56,active: 1,active: 0.917,active: 0.317
Cc1cnc(Nc2ccc(OCCN3CCCC3)cc2)nc1Nc1cccc(S(=O)(=O)NC(C)(C)C)c1,active: 1,active: 1,active: 1,active: 1
CC(=O)SCC(Cc1ccccc1)C(=O)NCC(=O)OCc1ccccc1 (stereo not drawn),active: 0.526,active: 0.729,inactive: 0.288,inactive: 0.171
NC(=O)CC[C@H](N)C(=O)O,inactive: 0.135,active: 0.678,active: 0.386,inactive: 0.07
O=c1ccc2ccccc2o1,active: 0.5,active: 0.363,inactive: 0.183,inactive: 0.214
c1cc(OCCN2CCCCC2)cc(-c2n[nH]c3ccc(-c4ncn[nH]4)cc23)c1,active: 1,active: 1,active: 0.806,active: 0.979
O=C(c1ccc(Cl)cc1)N(Cc1ccccc1)C1CCCCC1,active: 0.665,active: 0.534,active: 0.677,active: 0.353

Structure (SMILES),mean average precision (A549; 24 h),mean average precision (A549; 48 h),mean average precision (U2OS; 24 h),mean average precision (U2OS; 48 h)
COC1(C2=NCCN2)COc2ccccc2O1 (stereo not drawn),inactive: 0.14,active: 0.89,active: 0.408,inactive: 0.147
OCc1ccc(-c2nn(Cc3ccccc3)c3ccccc23)o1,active: 0.307,active: 0.7,active: 1,active: 0.791
CCCCC1C(=O)N(c2ccccc2)N(c2ccccc2)C1=O,active: 0.334,active: 0.707,inactive: 0.305,inactive: 0.135
OCCN1C[C@@H](O)[C@@H](O)C(O)C1CO (stereo partly drawn),inactive: 0.139,active: 0.931,inactive: 0.259,active: 0.537
Cc1ccc(NC2=CC(=O)c3sc(C)nc3C2=O)cc1,active: 1,active: 1,active: 1,active: 1
O=C1CCc2ccc(OCCCCN3CCN(c4cccc(Cl)c4Cl)CC3)cc2N1,active: 0.951,active: 0.88,active: 0.67,active: 0.952
CCn1c(=O)[nH]c2ccccc21,active: 0.465,active: 0.478,active: 0.579,active: 0.468
Cc1ccc(NC(=O)c2cccc(N(C)C)c2)cc1NC(=O)c1ccc(O)cc1,active: 1,active: 1,active: 0.958,active: 1
CCCOc1ccc2nc(NC(=O)OC)[nH]c2c1,active: 1,active: 1,active: 1,active: 1
C[C@@H]1CN(CC(=O)Nc2ccc3c(c2)Cc2cccc(-c4cc(=O)cc(N5CCOCC5)o4)c2S3)C[C@H](C)O1,active: 1,active: 1,active: 0.536,active: 0.819
COc1cc(OC)c(/C=C/S(=O)(=O)Cc2ccc(OC)c(OP(=O)(O)O)c2)c(OC)c1,active: 1,active: 1,active: 1,active: 1
COc1cc2ncnc(Nc3ccc(Oc4ccccc4)cc3)c2cc1OC,active: 1,active: 1,active: 1,active: 0.834
CCOC(=O)[C@H](C)C[C@@H](Cc1ccc(-c2ccccc2)cc1)NC(=O)CCC(=O)O,inactive: 0.126,active: 0.451,inactive: 0.183,inactive: 0.0874
O=c1cc(-c2cccc3c2Sc2ccccc2S3)oc(N2CCOCC2)c1,active: 1,active: 1,active: 0.958,active: 0.896
c1ccc(-c2nn3c(c2-c2ccnc4cc(OCCN5CCOCC5)ccc24)CCC3)nc1,active: 0.724,active: 1,active: 1,active: 0.631
Cc1csc(-c2nnc(Nc3ccc(Oc4ncccc4-c4ccnc(N)n4)cc3)c3ccccc23)c1,active: 1,active: 1,active: 1,active: 1
Cc1cn[nH]c1,inactive: 0.151,inactive: 0.215,active: 0.362,inactive: 0.195
C=CC(=O)Nc1cccc(Nc2nc(Nc3ccc(OCCOC)cc3)ncc2F)c1,active: 1,active: 1,active: 1,active: 1
S=C(S)N1CCCC1,active: 0.979,active: 1,active: 1,active: 1
Cc1cc(Nc2ncc(Cl)c(Nc3ccccc3S(=O)(=O)C(C)C)n2)c(OC(C)C)cc1C1CCNCC1,active: 1,active: 1,active: 1,active: 0.946
CC(C)(N)C(=O)N[C@H](COCc1ccccc1)C(=O)N1CCC2(CC1)CN(S(C)(=O)=O)c1ccccc12,active: 0.704,active: 1,active: 0.931,active: 0.37
CCN(CC)CCOC(=O)c1ccc(N)cc1,inactive: 0.315,active: 0.632,active: 0.603,active: 0.568
CC#CC(=O)N1CCC[C@H]1c1nc(-c2ccc(C(=O)Nc3ccccn3)cc2)c2c(N)nccn12,active: 0.373,active: 0.772,active: 0.441,active: 0.392

# — the supplement of paper PMC11166567
